From publication PMC4336329 (PLoS ONE, 2015)
Among all 310,000 compounds or so, about 2,200 (0.71%) showed an effect of 50% or more. The effect is printed as a negative number. This is one part of the list. Where a SMILES comes first, the peptide text is derived from it. The star is where a group is joined. Boc = CC(C)(C)OC(=O)*

These molecules were tested against human ether-à-go-go-related gene (hERG) potassium channel (human, UniProt Q12809) (assay: primary screen, population patch clamp on CHO cells stably expressing hERG).
Chain of human ether-à-go-go-related gene (hERG) potassium channel (Q12809 whole entry, looked up): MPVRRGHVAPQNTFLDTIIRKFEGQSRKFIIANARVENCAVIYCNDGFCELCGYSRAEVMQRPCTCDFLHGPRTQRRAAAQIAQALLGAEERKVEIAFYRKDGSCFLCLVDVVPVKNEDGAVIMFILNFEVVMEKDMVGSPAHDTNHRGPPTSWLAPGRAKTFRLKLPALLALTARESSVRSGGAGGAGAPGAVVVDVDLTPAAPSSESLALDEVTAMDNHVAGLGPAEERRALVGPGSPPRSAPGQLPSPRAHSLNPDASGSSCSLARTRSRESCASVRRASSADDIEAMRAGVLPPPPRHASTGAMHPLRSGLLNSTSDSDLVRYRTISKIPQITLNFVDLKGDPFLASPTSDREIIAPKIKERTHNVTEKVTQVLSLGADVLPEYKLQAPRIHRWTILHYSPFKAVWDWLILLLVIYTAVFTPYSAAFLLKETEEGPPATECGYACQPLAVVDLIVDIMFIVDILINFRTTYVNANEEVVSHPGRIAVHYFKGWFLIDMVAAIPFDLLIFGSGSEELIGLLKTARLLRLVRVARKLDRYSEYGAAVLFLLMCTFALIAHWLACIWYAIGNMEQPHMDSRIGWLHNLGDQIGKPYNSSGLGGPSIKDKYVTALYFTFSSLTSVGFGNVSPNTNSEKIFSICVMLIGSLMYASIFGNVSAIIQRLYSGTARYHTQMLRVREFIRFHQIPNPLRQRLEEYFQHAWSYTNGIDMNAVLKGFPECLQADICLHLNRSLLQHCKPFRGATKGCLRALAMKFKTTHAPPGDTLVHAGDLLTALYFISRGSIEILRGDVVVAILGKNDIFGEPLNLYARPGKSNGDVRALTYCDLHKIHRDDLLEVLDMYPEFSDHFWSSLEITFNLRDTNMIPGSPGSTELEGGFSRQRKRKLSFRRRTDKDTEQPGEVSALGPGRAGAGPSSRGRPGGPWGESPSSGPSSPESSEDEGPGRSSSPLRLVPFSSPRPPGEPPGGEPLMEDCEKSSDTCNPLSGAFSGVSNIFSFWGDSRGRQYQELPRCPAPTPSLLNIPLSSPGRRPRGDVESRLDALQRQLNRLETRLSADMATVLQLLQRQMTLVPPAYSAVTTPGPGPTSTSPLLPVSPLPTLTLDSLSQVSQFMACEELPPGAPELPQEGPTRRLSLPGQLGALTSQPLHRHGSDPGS

| Compound | hERG current change (%, negative = inhibition) at 1uM [%] |
| --- | --- |
| COc1ccc(C(=O)NCCN2CCOCC2)cc1[N+](=O)[O-] | 11.6 |
| Cn1c(CCNC(=O)c2ccccc2F)nnc1SCC(=O)Nc1ccccc1F | 6.51 |
| Cl.O=C(CN1CCNCC1)NCCSc1ccc(Cl)cc1 | -6.87 |
| CCCOc1ccccc1C(=O)N1CCNC(=O)C1CC(=O)OC(C)C (stereo not drawn) | 9.86 |
| O=C1NC[C@H](Cc2ccccc2)N(CC2CCCCC2)C1=O | 8.43 |
| CC(C)COC(=S)Nc1ccccc1 | 7.76 |
| O=C(OC(C(=O)NC1CCCCC1)c1ccccc1F)c1ccco1 (stereo not drawn) | 9.19 |
| CN(C)C(CNC(=O)CCNS(=O)(=O)c1ccccc1C(F)(F)F)c1ccccc1 (stereo not drawn) | 8.79 |
| Cc1ccc(C(=O)NCC(=O)N/N=C/c2sccc2C)cc1[N+](=O)[O-] | 8.66 |
| Cc1ccc(C)c(C(C)NC(=O)C2CCCC2)c1 (stereo not drawn) | 15 |
| Cc1cc([N+](=O)[O-])nn1CCCC(=O)Nc1ccc(Cl)cc1Cl | -4.42 |
| Cc1ccc(-c2nnn(CC(=O)N(CC(=O)NCC3CCCO3)c3ccc(F)c(Cl)c3)n2)o1 (stereo not drawn) | 9.85 |
| COC(=O)CCC(=O)OC1(C)C(=O)C=C2C=C(C3CC3)OC=C2C1=O (stereo not drawn) | 6.53 |
| CC(OC(=O)c1ccncc1)C(=O)Nc1cc(S(=O)(=O)N2CCCCC2)ccc1Cl (stereo not drawn) | -4.36 |
| CCc1cc2c(=O)n(Cc3ccco3)c(SCC(=O)N3CCCc4ccccc43)nc2s1 | 6.32 |
| C=CCN(C(=O)CCC(=O)O)C1CC(=O)N(c2ccc(OCCC)cc2)C1=O (stereo not drawn) | 13.2 |
| CC(=O)NNc1ncnc2ccccc12 | 11.9 |
| Br.COc1cccc(C(=O)CSc2nccn2C)c1 | 15.8 |
| O=C(CCC1COc2ccccc2O1)NCC1COc2ccccc2O1 (stereo not drawn) | 6.41 |
| Cc1ccc(C(=O)NCCc2nnc3ccc(N4CCCC4)nn23)cc1 | 15.4 |
| FC(F)(F)c1cccc(NC(=S)NNC(=S)Nc2ccc(Cl)cc2)c1 | 8.82 |
| COc1ccc(-c2cc(=O)oc3cc(OCC(=O)N4C[C@H]5C[C@@H](C4)c4cccc(=O)n4C5)ccc23)cc1 | 1.14 |

| Compound | hERG current change (%, negative = inhibition) at 1uM [%] |
| --- | --- |
| COc1ccc(NC(=O)CSc2nnc(-c3ccccn3)n2Cc2ccco2)cc1OC | -11.1 |
| CCOC(=O)/C=C1\SCC(=O)N1CC(=O)Nc1ccc(C(C)C)cc1 | -7.75 |
| CCCOc1ccc(CN(C(=O)c2cccc(OC)c2)C2CCS(=O)(=O)C2)cc1 (stereo not drawn) | 7.65 |
| COc1ccccc1NC(=O)c1ccccc1NS(=O)(=O)N1CCCC1 | 8.21 |
| Cc1ccc(NC(=S)N(CCN(C)C)Cc2cc3cccc(C)c3[nH]c2=O)cc1 | -29.4 |
| Cc1occc1C(=O)Nc1ccc2c(c1)CCC2 | 3.26 |
| CCN1C[C@]2(CO)CC[C@H](OC)[C@@]34C2[C@H](OC)[C@@](O)(C13)[C@@]1(O)C[C@H](OC)[C@H]2C[C@@H]4[C@@H]1[C@H]2OC | 9.25 |
| CCCCn1c(CCNC(=O)CC)nc2ccccc21 | 0.197 |
| C=CCn1c(P(C)(=O)O)nc2ccccc21 | 14.4 |
| O=C(OCc1ccccc1)c1cccc(-c2nnn(Cc3ccccc3)n2)c1 | 9.9 |
| Cc1cccc(C)c1NC(=O)CS(=O)CC(=O)NCC1OCCc2ccccc21 (stereo not drawn) | 16.2 |
| CCC(=O)c1ccc(OCC(=O)OCC(=O)N2CCc3ccccc3C2)cc1 | 5.84 |
| Cc1cc(N2CCC(C(=O)NC3CCCCC3)CC2)nc(-c2ccccc2)n1 | -5.09 |
| CCOc1cc2c(cc1/C=C1/NC(=O)N(CC(=O)OC)C1=O)OCO2 | 12.5 |
| COc1ccc(-c2oc(NC(=O)c3ccc(C)cc3)c(C#N)c2-c2ccc(OC)cc2)cc1 | -4.07 |
| Oc1cccc(/C=C/c2ccc3cccc(O)c3n2)c1 | 16.3 |
| FC(F)(F)c1ccc(C2[C@H]3CN(CC4CCCCC4)[C@H](c4ccccc4)C34CC2(c2cccnc2)C4)cc1 (stereo partly drawn) | 11.3 |
| CCC(C)C(NC(=O)OC(C)(C)C)C(=O)NC(C(=O)NC(C)C(N)=O)C(C)C (stereo not drawn) (Boc-Ile-Val-Ala-NH2; configuration not given here) | 7.78 |
| COC(=O)C1=C(C)N(C)C(=S)N(C)C1c1cccc(Br)c1 (stereo not drawn) | -8.59 |
| CCCNc1nc2c(c(=O)n(C)c(=O)n2C)n1Cc1ccc(F)cc1 | 6.22 |
| Cc1ncoc1C(=O)Nc1cccc(Cl)c1 | 1.6 |
| CC(C)c1ccc(OCC(O)CNC(C)c2ccccc2)cc1.Cl (stereo not drawn) | -0.387 |

| Compound | hERG current change (%, negative = inhibition) at 1uM [%] |
| --- | --- |
| O=C(COC(=O)CNC(=O)c1ccccc1F)NCC(F)(F)F | 6.66 |
| N#CC1=C(N)Oc2n[nH]c(-c3cccs3)c2C1C1C=CCCC1 (stereo not drawn) | 4.26 |
| O=[N+]([O-])c1ccc(O)c(C=Nc2ccc3c(c2)OCCO3)c1 | 12.7 |
| O=C(CC(=O)c1c(F)cccc1Cl)c1ccccc1O | 17 |
| COc1cc(C(=O)Oc2cc(C)cc(C)c2)cc(OC)c1OC | 23 |
| O=C(O)c1ccc(NC(=S)NC(=O)c2ccc(-c3ccccc3)cc2)cc1 | 14.8 |
| CN(C)Cc1cc(CN(C)C)c(O)c(CCc2ccccc2)n1.Cl | 7.81 |
| Cc1cccc(N2CCN(C(=O)CSc3ccsc3[N+](=O)[O-])CC2C)c1 (stereo not drawn) | 4.62 |
| COC(=O)c1ccc2c(=O)n(Cc3ccc4c(c3)OCO4)c(SCC(=O)N3CCCC3)nc2c1 | -10.9 |
| COc1ccc(CNC(=O)C2CCC(=O)N(CCCN3CCCC3=O)C2)cc1 (stereo not drawn) | 11.1 |
| Cc1ccnc(NC(=O)Nc2ccc3c(c2)N(C)C(=O)CS3)c1 | 10.5 |
| O=C(O)c1cc2ccccc2n1-c1ccccc1 | 8.47 |
| CCC(NS(=O)(=O)c1ccc(C)cc1)C(=O)N1CCN(c2ccccn2)CC1 (stereo not drawn) | 3.13 |
| N#CC(C(=O)NC1CCCCC1)c1nc2ccccc2nc1N1CCN(c2ccccc2F)CC1 (stereo not drawn) | 8.65 |
| COc1cccc(C(=O)Nc2cc(=O)n(C)c(=O)n2C)c1 | 17.4 |
| O=C(CC1C(=O)NCCN1C(=O)Nc1ccccc1)Nc1ccc(F)cc1 (stereo not drawn) | 14.2 |
| CCOc1ccc(-c2nonc2NC(=O)c2ccco2)cc1OCC | 19.2 |
| O=C(O)CCSc1nc2ccccc2c(=O)[nH]1 | 11.9 |
| Cc1ccc(C(=O)Nc2ncc([N+](=O)[O-])s2)cc1 | 10.1 |
| Cn1c(=O)oc2cc(S(=O)(=O)NCCN3CCN(c4ccccc4)CC3)ccc21 | -0.148 |
| COC(=O)c1ccc(S(=O)(=O)NCc2ccccc2)n1C | 6.61 |
| Cc1cc(OCC(=O)N2C[C@H]3C[C@@H](C2)c2cccc(=O)n2C3)c2c(C)c(C)c(=O)oc2c1 | 14.4 |

| Compound | hERG current change (%, negative = inhibition) at 1uM [%] |
| --- | --- |
| COc1cn(-c2ccccc2)nc1C(=O)OCC(=O)Nc1ccc(C)c(C)c1 | 12.1 |
| Cc1c(N(C)C)nc2ccccc2c1N.O=C(O)C(=O)O | -8.8 |
| Cc1nn(CCc2nn[nH]n2)c2nc(C(F)(F)F)cc(C(F)(F)F)c12 | 13.5 |
| CC1(C)CC(=O)C2=C(C1)N(c1ccccc1)C(N)=C(C#N)C2c1ccccc1 (stereo not drawn) | 6.52 |
| CCN1C(=O)CC(C(=O)NC)SC1=Nc1cc(Cl)c(O)c(Cl)c1 (stereo not drawn) | 14 |
| COc1ccc(OC)c(S(=O)(=O)N2CCN(CC(O)COc3ccc(C#N)cc3)CC2)c1 (stereo not drawn) | -43.6 |
| CCOC(=O)c1cnn(-c2ccccc2)c1-c1ccccc1 | 12.8 |
| CCCN(CC(=O)Nc1ccccc1C)C(=O)Cc1cccs1 | 6.04 |
| COc1cccc(/C=C/c2ccccn2)c1O | 0.0669 |
| CN(C)N1C(N)=C(C#N)C(c2ccc(F)cc2)C2=C1CC(C)(C)CC2=O (stereo not drawn) | 8.86 |
| CC(C)(C)NC(=O)COC(=O)c1snc(C(=O)NC2CCCCC2)c1N | 4.4 |
| CCOc1ccc(N2C(=O)C(CC(=O)Nc3ccc(F)cc3)N(Cc3ccccn3)C2=S)cc1 (stereo not drawn) | 6.65 |
| O=c1[nH][nH]c(-c2ccccc2)c1C=Nc1ccc(F)cc1F | 7.62 |
| CCOC(=O)c1cn2nc(Oc3ccc(NC(C)=O)cc3)ccc2n1 | 12.7 |
| COC(=O)c1cc(NC(=O)/C=C/c2ccc3c(c2)OCO3)cc(C(=O)OC)c1 | -14.4 |
| COC(=O)c1c(C)[nH]c(C(=O)N2CCN(c3ccc(OC)cc3)CC2)c1C | 6.49 |
| CC(C)NC(=O)NC(=O)COc1ccc(Br)cc1Br | 2.45 |
| COc1ccc(-c2nc(C#N)c(NCC3CCCO3)o2)cc1 (stereo not drawn) | 4.71 |
| CC(C)C(=O)NCCc1c[nH]c2ccccc12 | 12.3 |
| Cc1ccc(NC(=O)/C(CN(C)C)=N\O)cc1 | 5.44 |
| COc1ccc(CN2CC(C(=O)NCCN3CCOCC3)CC2=O)cc1 (stereo not drawn) | 4.44 |
